The list shows a part of the results.
Legend:
Assay in all cases: glycan array binding signal (z-score within array); higher = stronger binding
Conditions in all cases: glycan notation: IUPAC condensed, linker removed
Fuc(a1-2)Gal = biological target: Fuc(a1-2)Gal
Procedure, shortened: (§1)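 Columns mapping to the same glycan were averaged after glycan names were converted to IUPAC-condensed notation. The data come from 3228 arrays in the Consortium for Functional Glycomics database, limited to those with an available protein sequence. Binding is reported as a within-array Z-score averaged across arrays of one protein sequence and across linkers.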

Fuc(a1-2)Gal(b1-3)GalNAc = biological target: Fuc(a1-2)Gal(b1-3)GalNAc
Procedure, shortened: as §1

[1] = biological target: Fuc(a1-2)Gal(b1-3)GalNAc(a1-3)[Fuc(a1-2)]Gal(b1-4)Glc
Procedure, shortened: as §1

[2] = biological target: Fuc(a1-2)Gal(b1-3)GalNAc(a1-3)[Fuc(a1-2)]Gal(b1-4)GlcNAc
Procedure, shortened: as §1

[3] = biological target: Fuc(a1-2)Gal(b1-3)GalNAc(b1-3)Gal
Procedure, shortened: as §1

[4] = biological target: Fuc(a1-2)Gal(b1-3)GalNAc(b1-3)Gal(a1-4)Gal(b1-4)Glc
Procedure, shortened: as §1

[5] = biological target: Fuc(a1-2)Gal(b1-3)GalNAc(b1-4)[Neu5Ac(a2-3)]Gal(b1-4)Glc
Procedure, shortened: as §1

Fuc(a1-2)Gal(b1-3)GlcNAc = biological target: Fuc(a1-2)Gal(b1-3)GlcNAc
Procedure, shortened: as §1

[6] = biological target: Fuc(a1-2)Gal(b1-3)GlcNAc(b1-2)Man(a1-3)[Fuc(a1-2)Gal(b1-3)GlcNAc(b1-2)Man(a1-6)]Man(b1-4)GlcNAc(b1-4)GlcNAc
Procedure, shortened: as §1

[7] = biological target: Fuc(a1-2)Gal(b1-3)GlcNAc(b1-2)Man(a1-3)[Fuc(a1-2)Gal(b1-3)GlcNAc(b1-2)Man(a1-6)]Man(b1-4)GlcNAc(b1-4)[Fuc(a1-6)]GlcNAc
Procedure, shortened: as §1

[8] = biological target: Fuc(a1-2)Gal(b1-3)GlcNAc(b1-3)Gal(b1-4)Glc
Procedure, shortened: as §1

[9] = biological target: Fuc(a1-2)Gal(b1-3)GlcNAc(b1-3)GalNAc
Procedure, shortened: as §1

[10] = biological target: Fuc(a1-2)Gal(b1-3)GlcNAc(b1-3)[Fuc(a1-2)Gal(b1-3)GlcNAc(b1-6)]GalNAc
Procedure, shortened: as §1

[11] = biological target: Fuc(a1-2)Gal(b1-3)GlcNAc(b1-3)[Gal(b1-4)GlcNAc(b1-6)]Gal(b1-4)Glc
Procedure, shortened: as §1

[12] = biological target: Fuc(a1-2)Gal(b1-3)GlcNAc(b1-3)[Neu5Ac(a2-6)Gal(b1-4)GlcNAc(b1-6)]Gal(b1-4)Glc
Procedure, shortened: as §1

[13] = biological target: Fuc(a1-2)Gal(b1-3)GlcNAc6S
Procedure, shortened: as §1

[14] = biological target: Fuc(a1-2)Gal(b1-3)[Fuc(a1-4)]GlcNAc
Procedure, shortened: as §1

[15] = biological target: Fuc(a1-2)Gal(b1-3)[Fuc(a1-4)]GlcNAc(b1-2)Man(a1-3)[Fuc(a1-2)Gal(b1-3)[Fuc(a1-4)]GlcNAc(b1-2)Man(a1-3)]Man(b1-4)GlcNAc(b1-4)GlcNAc
Procedure, shortened: as §1

[16] = biological target: Fuc(a1-2)Gal(b1-3)[Fuc(a1-4)]GlcNAc(b1-2)Man(a1-3)[Fuc(a1-2)Gal(b1-3)[Fuc(a1-4)]GlcNAc(b1-2)Man(a1-6)]Man(b1-4)GlcNAc(b1-4)[Fuc(a1-6)]GlcNAc(b1-4)[Fuc(a1-6)]GlcNAc
Procedure, shortened: as §1

[17] = biological target: Fuc(a1-2)Gal(b1-3)[Fuc(a1-4)]GlcNAc(b1-3)[Fuc(a1-3)[Gal(b1-4)]GlcNAc(b1-6)]Gal(b1-4)Glc
Procedure, shortened: as §1

[18] = biological target: Fuc(a1-2)Gal(b1-3)[Fuc(a1-4)]GlcNAc(b1-3)[Gal(b1-4)GlcNAc(b1-6)]Gal(b1-4)Glc
Procedure, shortened: as §1

Fuc(a1-2)Gal(b1-4)Glc = biological target: Fuc(a1-2)Gal(b1-4)Glc
Procedure, shortened: as §1

Fuc(a1-2)Gal(b1-4)Glc6S = biological target: Fuc(a1-2)Gal(b1-4)Glc6S
Procedure, shortened: as §1

Fuc(a1-2)Gal(b1-4)GlcNAc = biological target: Fuc(a1-2)Gal(b1-4)GlcNAc
Procedure, shortened: as §1

[19] = biological target: Fuc(a1-2)Gal(b1-4)GlcNAc(b1-2)Man
Procedure, shortened: as §1

[20] = biological target: Fuc(a1-2)Gal(b1-4)GlcNAc(b1-2)Man(a1-3)[Fuc(a1-2)Gal(b1-4)GlcNAc(b1-2)Man(a1-6)]Man(b1-4)GlcNAc(b1-4)GlcNAc
Procedure, shortened: as §1

[21] = biological target: Fuc(a1-2)Gal(b1-4)GlcNAc(b1-2)Man(a1-3)[Fuc(a1-2)Gal(b1-4)GlcNAc(b1-2)Man(a1-6)]Man(b1-4)GlcNAc(b1-4)[Fuc(a1-6)]GlcNAc
Procedure, shortened: as §1

[22] = biological target: Fuc(a1-2)Gal(b1-4)GlcNAc(b1-2)[Fuc(a1-2)Gal(b1-4)GlcNAc(b1-4)]Man(a1-3)[Fuc(a1-2)Gal(b1-4)GlcNAc(b1-2)Man(a1-6)]Man(b1-4)GlcNAc(b1-4)GlcNAc
Procedure, shortened: as §1

[23] = biological target: Fuc(a1-2)Gal(b1-4)GlcNAc(b1-3)Gal(b1-4)GlcNAc
Procedure, shortened: as §1

[24] = biological target: Fuc(a1-2)Gal(b1-4)GlcNAc(b1-3)Gal(b1-4)GlcNAc(b1-2)Man(a1-3)[Fuc(a1-2)Gal(b1-4)GlcNAc(b1-3)Gal(b1-4)GlcNAc(b1-2)Man(a1-6)]Man(b1-4)GlcNAc(b1-4)GlcNAc
Procedure, shortened: as §1

B1: Pbx2 (Cryptococcus neoformans) (protein)
chain: AVSPLPSSTELVFYSQKRRRRRICSTATGSLSTPDPTRMTSDPYKRVGMRFSSVPRLLITFLSLLLLVSAAPPCVRFADYDSINQMFIDGGPGTKVLLCPNRLYRLSGPIIFTAADQEIATYGYPTGSERAVLRVEGRNTATAIQGDCRRCARVSVKNLVVDGNRKKLGRMRDFQLATGLVVLGGNEGQSIQNSWIKNPRGFTAIHIREGDKLQCSGARVEKNEIGPVGEEYDPEKDGDDPEMSPLGRPLADGVSIACRDSFIRDNTFRDNTDAAIVVYCSPGTLIHANHIFAQSLSAMAGILMVDSTPFNGDYTGTVVRSNIIDAVSRTIRVGIGIGPTVWSDDTETILTGGSVIGNGLKGRYMGYGIAAAGLKQWTIKDNWDEAKHEGRKSARCFDEPVNPDPIGLLYNRPTMEDCTVQSGFADHDFQYLVCIDGLYDKTNPPKHDPAPLAHDPSPTNAQEDNTVQQDGGDSKSKSIEQPREASDIEAEPSVEKMFSTGSEMMDDVLEHSHQRMHEVIDHLSRRIDILGAASAGKGSGDSKISEVLDPAMSSHLEKLQRKIEHLEFSLRSQIETAIQLRSAIQGWDQEMALVTDWEYDILLDVRHKLELSSYPHDQPLDPRLMRGQSYLNNEAVLVDDHSHPSLEGENLRAMSDRARLNANEEA
In the case of B1, the “glycan array binding signal (z-score)” value (Fuc(a1-2)Gal) is reported as -0.187, the “glycan array binding signal (z-score)” value (Fuc(a1-2)Gal(b1-3)GalNAc) is reported as -0.473 and the “glycan array binding signal (z-score)” value [1] is reported as 0.282. The “glycan array binding signal (z-score)” value [2] was 0.004, the “glycan array binding signal (z-score)” value [3] was 1.09 and the “glycan array binding signal (z-score)” value [4] was -0.097. For the same binder, the “glycan array binding signal (z-score)” value [5] was -0.201, the “glycan array binding signal (z-score)” value (Fuc(a1-2)Gal(b1-3)GlcNAc) was -0.236 and the “glycan array binding signal (z-score)” value [6] was -0.501. The “glycan array binding signal (z-score)” value [7] was -0.396, the “glycan array binding signal (z-score)” value [8] was -0.078 and the “glycan array binding signal (z-score)” value [9] was 0.009. For the same binder, the “glycan array binding signal (z-score)” value [10] was 0.145, the “glycan array binding signal (z-score)” value [11] was -0.303 and the “glycan array binding signal (z-score)” value [12] was -0.281. For the same binder, the “glycan array binding signal (z-score)” value [13] was 0.178, the “glycan array binding signal (z-score)” value [14] was -0.496 and the “glycan array binding signal (z-score)” value [15] was -0.029. The “glycan array binding signal (z-score)” value [16] was -0.261, the “glycan array binding signal (z-score)” value [17] was -0.051 and the “glycan array binding signal (z-score)” value [18] was -0.476. For the same binder, the “glycan array binding signal (z-score)” value (Fuc(a1-2)Gal(b1-4)Glc) was -0.088, the “glycan array binding signal (z-score)” value (Fuc(a1-2)Gal(b1-4)Glc6S) was -0.29 and the “glycan array binding signal (z-score)” value (Fuc(a1-2)Gal(b1-4)GlcNAc) was -0.42. The “glycan array binding signal (z-score)” value [19] was 1.17, the “glycan array binding signal (z-score)” value [20] was -0.408 and the “glycan array binding signal (z-score)” value [21] was -0.151. The “glycan array binding signal (z-score)” value [22] was -0.244, the “glycan array binding signal (z-score)” value [23] was -0.508 and the “glycan array binding signal (z-score)” value [24] was -0.11.

From the supplement of paper PMC8728848
